Source: the supplement of paper PMC10724272

Columns and labels:
Assay in all cases: CLSI broth microdilution.
itraconazole = compound: CCC(C)n1ncn(-c2ccc(N3CCN(c4ccc(OCC5COC(Cn6cncn6)(c6ccc(Cl)cc6Cl)O5)cc4)CC3)cc2)c1=O [itraconazole]
micafungin = compound: CCCCCOc1ccc(-c2cc(-c3ccc(C(=O)N[C@H]4C[C@@H](O)[C@@H](O)NC(=O)[C@@H]5[C@@H](O)[C@@H](C)CN5C(=O)[C@H]([C@H](O)CC(N)=O)NC(=O)[C@H]([C@H](O)[C@@H](O)c5ccc(O)c(OS(=O)(=O)O)c5)NC(=O)[C@@H]5C[C@@H](O)CN5C(=O)[C@H]([C@@H](C)O)NC4=O)cc3)no2)cc1 [micafungin]
anidulafungin = compound: CCCCCOc1ccc(-c2ccc(-c3ccc(C(=O)N[C@H]4C[C@@H](O)[C@@H](O)NC(=O)[C@@H]5[C@@H](O)[C@@H](C)CN5C(=O)[C@H]([C@@H](C)O)NC(=O)[C@H]([C@H](O)[C@@H](O)c5ccc(O)cc5)NC(=O)[C@@H]5C[C@@H](O)CN5C(=O)[C@H]([C@@H](C)O)NC4=O)cc3)cc2)cc1 [anidulafungin]
posaconazole = compound: CC[C@@H]([C@H](C)O)n1ncn(-c2ccc(N3CCN(c4ccc(OC[C@@H]5CO[C@@](Cn6cncn6)(c6ccc(F)cc6F)C5)cc4)CC3)cc2)c1=O [posaconazole]
caspofungin = compound: CC[C@H](C)C[C@H](C)CCCCCCCCC(=O)N[C@H]1C[C@@H](O)[C@@H](NCCN)NC(=O)[C@@H]2[C@@H](O)CCN2C(=O)[C@H]([C@H](O)CCN)NC(=O)[C@H]([C@H](O)[C@@H](O)c2ccc(O)cc2)NC(=O)[C@@H]2C[C@@H](O)CN2C(=O)[C@H]([C@@H](C)O)NC1=O [caspofungin]
voriconazole = compound: C[C@@H](c1ncncc1F)[C@](O)(Cn1cncn1)c1ccc(F)cc1F [voriconazole]
amphotericin B = compound: C[C@@H]1[C@H](O)[C@@H](C)/C=C/C=C/C=C/C=C/C=C/C=C/C=C/[C@H](O[C@@H]2O[C@H](C)[C@@H](O)[C@H](N)[C@@H]2O)C[C@@H]2O[C@](O)(C[C@@H](O)C[C@@H](O)[C@H](O)CC[C@@H](O)C[C@@H](O)CC(=O)O[C@H]1C)C[C@H](O)[C@H]2C(=O)O [amphotericin B]
flucytosine = compound: Nc1[nH]c(=O)ncc1F [flucytosine]
fluconazole = compound: OC(Cn1cncn1)(Cn1cncn1)c1ccc(F)cc1F [fluconazole]

Candida tropicalis isolate 174 (ERG11 copies: 2, Erg11p: no key change)
MIC (itraconazole): 0.25 mg/L [S]
MIC (micafungin): 0.03 mg/L [S]
MIC (anidulafungin): 0.03 mg/L [S]
MIC (posaconazole): 0.12 mg/L [S]
MIC (caspofungin): 0.03 mg/L [S]
MIC (voriconazole): 0.12 mg/L [S]
MIC (amphotericin B): 0.5 mg/L [S]
MIC (flucytosine): ≤ 0.06 mg/L [S]
MIC (fluconazole): 1 mg/L [S]

Candida tropicalis isolate 175 (ERG11 copies: 2, Erg11p: Y257H (homozygous))
MIC (itraconazole): 0.25 mg/L [S]
MIC (micafungin): 0.015 mg/L [S]
MIC (anidulafungin): 0.03 mg/L [S]
MIC (posaconazole): 0.25 mg/L [S]
MIC (caspofungin): 0.03 mg/L [S]
MIC (voriconazole): 0.5 µg/mL
MIC (amphotericin B): 0.5 mg/L [S]
MIC (flucytosine): ≤ 0.06 mg/L [S]
MIC (fluconazole): 8 mg/L [R]

Candida tropicalis isolate 176 (ERG11 copies: 2, Erg11p: no key change)
MIC (itraconazole): 0.12 mg/L [S]
MIC (micafungin): 0.03 mg/L [S]
MIC (anidulafungin): 0.03 mg/L [S]
MIC (posaconazole): 0.12 mg/L [S]
MIC (caspofungin): 0.015 mg/L [S]
MIC (voriconazole): 0.12 mg/L [S]
MIC (amphotericin B): 1 mg/L [S]
MIC (flucytosine): ≤ 0.06 mg/L [S]
MIC (fluconazole): 1 mg/L [S]

Candida tropicalis isolate 177 (ERG11 copies: 2, Erg11p: no key change)
MIC (itraconazole): 0.12 mg/L [S]
MIC (micafungin): 0.015 mg/L [S]
MIC (anidulafungin): 0.12 mg/L [S]
MIC (posaconazole): 0.12 mg/L [S]
MIC (caspofungin): 0.03 mg/L [S]
MIC (voriconazole): 0.03 mg/L [S]
MIC (amphotericin B): 0.25 mg/L [S]
MIC (flucytosine): 0.12 mg/L [S]
MIC (fluconazole): 0.5 mg/L [S]

Candida tropicalis isolate 178 (ERG11 copies: 2, Erg11p: no key change)
MIC (itraconazole): 0.25 mg/L [S]
MIC (micafungin): 0.015 mg/L [S]
MIC (anidulafungin): ≤ 0.015 mg/L [S]
MIC (posaconazole): 0.25 mg/L [S]
MIC (caspofungin): 0.03 mg/L [S]
MIC (voriconazole): 0.12 mg/L [S]
MIC (amphotericin B): 1 mg/L [S]
MIC (flucytosine): ≤ 0.06 mg/L [S]
MIC (fluconazole): 2 mg/L [S]

Candida tropicalis isolate 179 (ERG11 copies: 6, Erg11p: Y132F, S154F (heterozygous))
MIC (itraconazole): 0.25 mg/L [S]
MIC (micafungin): 0.03 mg/L [S]
MIC (anidulafungin): 0.03 mg/L [S]
MIC (posaconazole): 0.25 mg/L [S]
MIC (caspofungin): 0.015 mg/L [S]
MIC (voriconazole): ≥ 8 mg/L [R]
MIC (amphotericin B): 1 mg/L [S]
MIC (flucytosine): ≤ 0.06 mg/L [S]
MIC (fluconazole): 256 mg/L [R]

Candida tropicalis isolate 180 (ERG11 copies: 2, Erg11p: no key change)
MIC (itraconazole): 0.015 mg/L [S]
MIC (micafungin): 0.008 mg/L [S]
MIC (anidulafungin): ≤ 0.015 mg/L [S]
MIC (posaconazole): 0.015 mg/L [S]
MIC (caspofungin): 0.015 mg/L [S]
MIC (voriconazole): ≤ 0.008 mg/L [S]
MIC (amphotericin B): 1 mg/L [S]
MIC (flucytosine): 0.12 mg/L [S]
MIC (fluconazole): 0.25 mg/L [S]

Candida tropicalis isolate 181 (ERG11 copies: 2, Erg11p: no key change)
MIC (itraconazole): 0.25 mg/L [S]
MIC (micafungin): 0.03 mg/L [S]
MIC (anidulafungin): ≤ 0.015 mg/L [S]
MIC (posaconazole): 0.25 mg/L [S]
MIC (caspofungin): 0.06 mg/L [S]
MIC (voriconazole): 0.12 mg/L [S]
MIC (amphotericin B): 1 mg/L [S]
MIC (flucytosine): 0.12 mg/L [S]
MIC (fluconazole): 2 mg/L [S]

Candida tropicalis isolate 182 (ERG11 copies: 2, Erg11p: no key change)
MIC (itraconazole): 0.12 mg/L [S]
MIC (micafungin): 0.03 mg/L [S]
MIC (anidulafungin): 0.25 mg/L [S]
MIC (posaconazole): 0.12 mg/L [S]
MIC (caspofungin): 0.06 mg/L [S]
MIC (voriconazole): 0.12 mg/L [S]
MIC (amphotericin B): 0.5 mg/L [S]
MIC (flucytosine): 0.12 mg/L [S]
MIC (fluconazole): 1 mg/L [S]

Candida tropicalis isolate 183 (ERG11 copies: 2, Erg11p: no key change)
MIC (itraconazole): 0.12 mg/L [S]
MIC (micafungin): 0.03 mg/L [S]
MIC (anidulafungin): 0.03 mg/L [S]
MIC (posaconazole): 0.06 mg/L [S]
MIC (caspofungin): 0.03 mg/L [S]
MIC (voriconazole): 0.06 mg/L [S]
MIC (amphotericin B): 1 mg/L [S]
MIC (flucytosine): ≤ 0.06 mg/L [S]
MIC (fluconazole): 1 mg/L [S]

Candida tropicalis isolate 184 (ERG11 copies: 2, Erg11p: no key change)
MIC (itraconazole): 0.25 mg/L [S]
MIC (micafungin): 0.015 mg/L [S]
MIC (anidulafungin): ≤ 0.015 mg/L [S]
MIC (posaconazole): 0.12 mg/L [S]
MIC (caspofungin): 0.03 mg/L [S]
MIC (voriconazole): 0.06 mg/L [S]
MIC (amphotericin B): 1 mg/L [S]
MIC (flucytosine): ≤ 0.06 mg/L [S]
MIC (fluconazole): 1 mg/L [S]

Candida tropicalis isolate 185 (ERG11 copies: 2, Erg11p: no key change)
MIC (itraconazole): 0.25 mg/L [S]
MIC (micafungin): 0.06 mg/L [S]
MIC (anidulafungin): 0.12 mg/L [S]
MIC (posaconazole): 0.5 mg/L [R]
MIC (caspofungin): 0.12 mg/L [S]
MIC (voriconazole): 0.25 µg/mL
MIC (amphotericin B): 1 mg/L [S]
MIC (flucytosine): ≤ 0.06 mg/L [S]
MIC (fluconazole): 2 mg/L [S]

Candida tropicalis isolate 186 (ERG11 copies: 2, Erg11p: no key change)
MIC (itraconazole): 0.03 mg/L [S]
MIC (micafungin): 0.015 mg/L [S]
MIC (anidulafungin): 0.06 mg/L [S]
MIC (posaconazole): 0.03 mg/L [S]
MIC (caspofungin): 0.03 mg/L [S]
MIC (voriconazole): ≤ 0.008 mg/L [S]
MIC (amphotericin B): 0.5 mg/L [S]
MIC (flucytosine): ≥ 64 mg/L [R]
MIC (fluconazole): 0.25 mg/L [S]

Candida tropicalis isolate 187 (ERG11 copies: 2, Erg11p: no key change)
MIC (itraconazole): 0.5 mg/L [S]
MIC (micafungin): 0.06 mg/L [S]
MIC (anidulafungin): 0.06 mg/L [S]
MIC (posaconazole): 0.5 mg/L [R]
MIC (caspofungin): 0.03 mg/L [S]
MIC (voriconazole): 0.5 µg/mL
MIC (amphotericin B): 0.5 mg/L [S]
MIC (flucytosine): 0.25 mg/L [S]
MIC (fluconazole): 4 µg/mL

Candida tropicalis isolate 188 (ERG11 copies: 2, Erg11p: no key change)
MIC (itraconazole): 0.06 mg/L [S]
MIC (micafungin): 0.015 mg/L [S]
MIC (anidulafungin): ≤ 0.015 mg/L [S]
MIC (posaconazole): 0.06 mg/L [S]
MIC (caspofungin): 0.015 mg/L [S]
MIC (voriconazole): 0.03 mg/L [S]
MIC (amphotericin B): 0.5 mg/L [S]
MIC (flucytosine): ≤ 0.06 mg/L [S]
MIC (fluconazole): 0.12 mg/L [S]

Candida tropicalis isolate 189 (ERG11 copies: 2, Erg11p: no key change)
MIC (itraconazole): 0.5 mg/L [S]
MIC (micafungin): 0.06 mg/L [S]
MIC (anidulafungin): 0.12 mg/L [S]
MIC (posaconazole): 1 mg/L [R]
MIC (caspofungin): 0.06 mg/L [S]
MIC (voriconazole): ≥ 8 mg/L [R]
MIC (amphotericin B): 0.5 mg/L [S]
MIC (flucytosine): ≤ 0.06 mg/L [S]
MIC (fluconazole): 256 mg/L [R]

MIC of invasive clinical C. tropicalis isolates, CLSI broth microdilution (fluconazole 0.12-256 mg/L, up to 1,024 for the azole-resistant cluster and its neighbour group; other ranges not stated); higher = less susceptible. Call: susceptible or wild type [S] / resistant or non-wild type [R] by CLSI breakpoints or cut-offs; intermediate and dose-dependent carry no call. '<=' and '>=' at the end values are inferred; the source marks only some of them. Isolates are numbered anew.
